Measured values taken from the supplement of paper PMC3334620.
Whole data set: some 33,000 sequences, median “E-score (-0.5 to 0.5)” near -0.041, cut for the highest 2% near 0.37. Some of the results follow.

What follows are sequences tested against T1, Ecm22 (UniProt Q05958) (assay: PBM E-score (8-mer binding enrichment) (E-score (-0.5 to 0.5)); higher = stronger / more preferred TF binding; most listed sequences are background and not binding sites). Conditions: protein concentration: 200 nM; construct: GST-full length.
T1 sequence: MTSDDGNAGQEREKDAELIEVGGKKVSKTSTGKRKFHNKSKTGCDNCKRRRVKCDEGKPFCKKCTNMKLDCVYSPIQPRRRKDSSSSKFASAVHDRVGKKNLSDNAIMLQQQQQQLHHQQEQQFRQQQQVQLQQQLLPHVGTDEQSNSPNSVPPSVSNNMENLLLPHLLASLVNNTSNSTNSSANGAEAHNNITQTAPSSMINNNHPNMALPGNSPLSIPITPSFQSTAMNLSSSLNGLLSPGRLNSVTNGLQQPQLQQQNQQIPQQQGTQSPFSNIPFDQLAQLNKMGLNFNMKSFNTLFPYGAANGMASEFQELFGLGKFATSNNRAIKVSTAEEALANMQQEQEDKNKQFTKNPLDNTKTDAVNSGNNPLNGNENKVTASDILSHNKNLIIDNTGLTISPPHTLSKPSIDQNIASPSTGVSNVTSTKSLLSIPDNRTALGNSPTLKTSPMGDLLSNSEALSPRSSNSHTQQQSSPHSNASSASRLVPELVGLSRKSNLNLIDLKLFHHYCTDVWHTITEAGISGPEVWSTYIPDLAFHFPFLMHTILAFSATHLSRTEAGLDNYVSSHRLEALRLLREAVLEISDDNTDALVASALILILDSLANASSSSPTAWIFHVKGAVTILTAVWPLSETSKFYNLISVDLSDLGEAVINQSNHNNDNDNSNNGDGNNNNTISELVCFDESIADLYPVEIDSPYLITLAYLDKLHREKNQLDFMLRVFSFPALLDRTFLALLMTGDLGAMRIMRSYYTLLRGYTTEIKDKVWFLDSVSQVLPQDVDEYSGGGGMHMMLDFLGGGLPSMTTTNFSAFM
Summary of the method: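 E-scores (a modified Wilcoxon-Mann-Whitney statistic) were assigned by the Universal PBM Analysis Suite to every ungapped eight-base word pooled with its reverse complement. The input came from universal all-10-mer Agilent arrays made double-stranded by primer extension and probed with GST-tagged yeast transcription factors at about 100-200 nM. Fluorescent anti-GST detected bound protein, and masliner normalised the scans.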

| Sequence | PBM E-score |
| --- | --- |
| GAACCTAC | 0.0124 |
| ACTTAGTA | 0.0607 |
| GCCGCAAC | 0.0256 |
| ATACAGAG | -0.0254 |
| AGTACGTG | 0.142 |
| ATCAACGC | 0.0236 |
| GGTGCCCA | -0.191 |
| GCTGACAA | -0.168 |
| AAAATCCC | -0.156 |
| CTTGCAAC | -0.0385 |
| GATAGCGA | 0.0746 |
| CCTGTGCC | -0.117 |
| CTGGTCCA | -0.135 |
| ATACCGCA | 0.0296 |
| CTCAGGCA | -0.1 |
| AGAAGAAG | -0.0806 |
| CCAGCTAG | -0.105 |
| ATACAGGG | -0.0486 |
| CTCTACTA | -0.0921 |
| CAGTCTCG | 0.0311 |
| ATACGCGA | 0.345 |
| CCGATGCA | 0.0235 |
| AATACGAT | 0.384 |
| CCGGATCA | -0.0894 |
| GTTGGCGA | 0.104 |

| Sequence | PBM E-score |
| --- | --- |
| AAAGAGGG | -0.0291 |
| CTGCCATA | 0.0699 |
| AGCGCTAC | -0.00179 |
| TGGATCCA | -0.0833 |
| GGCGAAAC | 0.0251 |
| GTAGATGA | 0.0274 |
| GATCCCAC | -0.0724 |
| ATTTGCGC | 0.0384 |
| AGTGTTAT | -0.0953 |
| AATCTTAG | -0.166 |
| ATGATCCA | -0.19 |
| ACTACGTA | 0.211 |
| ACACCATA | 0.0278 |
| CCCATCTA | -0.247 |
| AGCATATC | -0.0534 |
| GCGTTTGA | 0.0263 |
| AATATTGT | -0.0139 |
| AATCTAAC | 0.00451 |
| TAACCATA | -0.0509 |
| AATTCGCC | -0.0198 |
| GCGGGCAA | 0.0284 |
| ATAGCTGC | -0.11 |
| CTACGTGA | -0.0188 |
| CCCGAGAG | -0.00661 |
| CCCAACTA | -0.0623 |

| Sequence | PBM E-score |
| --- | --- |
| CTAAGTCA | -0.17 |
| GGTTGGCA | -0.0499 |
| CATTCGTC | 0.112 |
| TCTAGGAA | -0.0513 |
| GAGAAAGA | -0.0939 |
| GACTGAAA | 0.0006 |
| AGCCATCA | -0.0177 |
| CGAAAACC | 0.228 |
| CGTTAACC | 0.284 |
| AATATTAT | 0.0325 |
| GAACAGCC | -0.0804 |
| ACATTCGG | 0.0251 |
| AGAGTCAC | -0.192 |
| ACTAGTAA | -0.181 |
| CACTTGGA | 0.00049 |
| CAGGTAGG | -0.25 |
| AGATACTA | -0.17 |
| AGGCCCTA | -0.275 |
| GAGCAAAA | -0.104 |
| ATCCAGGA | -0.279 |
| CACTACGC | -0.27 |
| TGACTACA | -0.0398 |
| AACCATAC | 0.141 |
| CTCCCTCC | -0.261 |
| CAACTGCG | 0.0233 |

| Sequence | PBM E-score |
| --- | --- |
| AGGGGTGG | -0.0647 |
| GATCAAGC | 0.148 |
| CAAGACTG | -0.259 |
| CATCCGTA | 0.327 |
| CCGCCAAG | -0.193 |
| CACACGTG | -0.154 |
| GAGCACCA | -0.0179 |
| ACAAGACG | -0.147 |
| CGCCTGGC | -0.243 |
| AGAAACTG | 0.0432 |
| CTCCTGCC | -0.203 |
| GGCAATAA | -0.0967 |
| CGAACTGC | 0.119 |
| CGACTTAA | -0.0319 |
| TGTCGAAA | -0.0809 |
| ATCTAGTG | -0.0611 |
| AGTAAGGG | -0.25 |
| GGTGGAGA | -0.15 |
| CAATAGTG | -0.175 |
| CAGATTGA | -0.181 |
| CTGGTGAC | -0.157 |
| GGAAAGCA | 0.0846 |
| GGCTCGCA | 0.186 |
| ACCCTGCC | -0.229 |
| ATTGGAAG | -0.182 |

| Sequence | PBM E-score |
| --- | --- |
| GCACAATA | -0.106 |
| ATGTATCC | -0.11 |
| GATGCGAA | 0.271 |
| CCGATTTA | 0.0303 |
| ACCTAAGA | 0.0205 |
| ATACCATG | 0.0669 |
| ACAAATCT | 0.0933 |
| AGGAATAA | -0.0874 |
| GACGCCAA | -0.0883 |
| AACGACAG | 0.412 |
| GAAGAGTA | -0.0021 |
| CGGGAACA | 0.165 |
| CCAAGCTA | -0.182 |
| AAATAGAG | -0.0589 |
| CTCGGCAC | 0.127 |
| ACGTGTGG | -0.0452 |
| CGTTCTGC | 0.197 |
| AAGGCTAC | -0.0731 |
| AGTTGTGG | -0.00657 |
| ACCAAGCC | -0.176 |
| CCCAGAAA | -0.0859 |
| GGGCAAAC | -0.0112 |
| TAGCCGGA | 0.0365 |
| CCAACATC | -0.00898 |
| AAACGAGC | 0.482 |

| Sequence | PBM E-score |
| --- | --- |
| ACACGTCT | -0.264 |
| CTTGTACA | -0.0719 |
| ATTCACCA | -0.162 |
| CTACACCA | -0.128 |
| AGTTTAAT | -0.052 |
| TCTTGGCA | -0.102 |
| AATCTAAG | 0.0188 |
| AAACCGCT | -0.0228 |
| ACATGGTC | -0.0913 |
| CCTGAGCC | -0.311 |
| GCTCGTTA | 0.373 |
| ATATTAAC | 0.18 |
| ATAACAAC | 0.0333 |
| CTCGGACA | 0.246 |
| CTCTGCCA | -0.183 |
| GCATACCC | -0.137 |
| CAAACGTC | 0.119 |
| CCTAACTC | 0.0132 |
| GCAATCGC | 0.0198 |
| ATCTGATA | -0.128 |
| ATTGTCTA | 0.165 |
| CGTAGGCA | 0.0261 |
| AATGGCTC | 0.0478 |
| CCACAATA | -0.0497 |
| CTAATTGA | -0.0982 |

| Sequence | PBM E-score |
| --- | --- |
| AACATACC | 0.14 |
| TCTCCGAA | 0.0722 |
| AGATTGAA | -0.147 |
| ACAGGATA | 0.115 |
| TCATACCA | -0.0984 |
| GCGGTAAA | 0.173 |
| CCCGCCCG | 0.172 |
| ACCTCCCC | -0.123 |
| ACGCTCCA | 0.021 |
| ATACCTCC | -0.0991 |
| ATCTCAAA | -0.0417 |
| GCGACAAA | 0.00659 |
| ACACTGAA | 0.0983 |
| CAAGACTA | -0.187 |
| CATGGGAG | -0.0986 |
| TGTGGCAA | -0.0219 |
| GACTCCAA | -0.154 |
| GAACTGCA | -0.00253 |
| GATATCAA | 0.00995 |
| CGCGGTAG | -0.0685 |
| GCTACAGA | -0.121 |
| CCTGACCA | -0.0624 |
